About 4,000 (4.3%) of roughly 94,000 compounds were called active. Inconclusive results, whose numbers are uncertain, are shown with a selection of clear calls. Calls come from the whole dose curve; as a rule, active = well fitted inhibition curve with a large enough effect; inconclusive = small, poorly fitted or top-dose-only effect; inactive = no such curve, though single readings can be large or run the other way. Potencies of inconclusive entries are doubtful fits and often do not repeat.
assay: Cytotoxic Profiling in NIH 3T3 Cell Line of Diverse Libraries Using Quantitative High-Throughput Screening; details: NIH 3T3 viability, CellTiter-Glo ATP luminescence, 48-72 h; series mostly up to 96.7 µM; note: nearly all actives have a fitted effect of over 55% in size
How it was run: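 Cells were seeded at 400 per well, treated with pin-transferred compound, and kept 48 or 72 hr at 37 °C before CellTiter-Glo addition and luminescence imaging of cellular ATP.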
Potency is the fitted concentration of half-maximal effect; tags give direction and shape of the fitted curve.

SMILES | Potency
Cc1noc2c(NCCN(C)C)cc(-c3cccc(C(F)(F)F)c3)nc12 | active: 31.6 µM
COc1ccc(-c2cn3cc(C(=O)NCCCc4ccccc4)nc3s2)cc1 | inconclusive: 44.7 µM [inhibitor, partial curve, poor fit]
CCN1c2cc(C(=O)Nc3cccc(Br)c3)ccc2C(=O)N2CCCCCC21 (centres undefined) | active: 28.2 µM
CCCCCC(=O)N1CCC(=O)N(CC)C[C@H]2COc3ccccc3[C@H]21 | inconclusive: 70.8 µM [inhibitor, partial curve, poor fit]
COc1ccc(CNC(=O)C[C@@H]2[C@H](O)CCC3[C@](C)(CO)[C@H](OC(=O)NC4CCCCC4)CC[C@]32C)cc1 (some centres undefined) | inconclusive: 79.4 µM [inhibitor, partial curve, poor fit]
COc1ccc(-c2cc(N3CCCN(C(=O)Cc4ccc(OC)c(Cl)c4)CC3)n[nH]2)cc1 | inconclusive: 50.1 µM [inhibitor, partial curve, poor fit]
Cc1cc(-c2nn(-c3ccccc3F)cc2CN(C)C2CCOC2)c(C)s1 (centres undefined) | inactive
CC(C)C[C@@H]1N[C@H](C(=O)NCc2ccco2)Cc2c[nH]c3cccc1c23 | active: 100 µM
O=C(c1ccc2nccn2c1)N1CCN(c2cnccn2)CC1 | inconclusive: 28.2 µM [inhibitor, single point]
CN(C)[C@H]1CCN(Cc2cccc(C(=O)O)c2)C[C@H]1CCC(=O)O | inactive
COc1ccc(CNC(=O)C[C@@H]2CCNC[C@@H]2Cc2cc(-c3ccc(F)cc3)on2)cc1 | inconclusive: 79.4 µM [inhibitor, partial curve, poor fit]
O=C(NC1CCN(c2cc(-c3ccccc3)[nH]n2)C1)c1cccs1 (centres undefined) | inconclusive: 70.8 µM [inhibitor, single point]
COc1cccc(-c2c(C(=O)NCc3ccc(F)c(F)c3)nc3sccn23)c1 | inconclusive: 44.7 µM [inhibitor, partial curve, poor fit]
CCCNC(=O)N1CCC(Oc2ccccc2-c2nc(-c3ccncc3)no2)C1 (centres undefined) | inconclusive: 44.7 µM [inhibitor, partial curve, poor fit]
CCCc1noc(-c2ccn3c(CNC(=O)c4ccccc4Cl)nnc3c2)n1 | inconclusive: 39.8 µM [inhibitor, partial curve, poor fit]
O=C(COc1ccccc1)N1CCOCC12CCN(Cc1ccccc1)CC2 | inconclusive: 50.1 µM [inhibitor, partial curve, poor fit]
O=C(NC1CCN(c2ccc3nnc(C4CC4)n3n2)C1)c1ccccn1 (centres undefined) | inconclusive: 56.2 µM [inhibitor, partial curve, poor fit]
CN1CC(=O)N(C2CCCNC2)Cc2c(NCC3CCCCCC3)ncnc21 (centres undefined) | inconclusive: 79.4 µM [inhibitor, partial curve, poor fit]
Cc1ccc([S+](=O)([O-])N2CCN(Cc3ccccc3-c3ccc(C)c(Cl)c3)CC2)cc1 | inconclusive: 39.8 µM [inhibitor, partial curve, poor fit]
COc1ccccc1NC(=O)Cn1c(N2CCN(c3ccccc3)CC2)nc(C)cc1=O | inconclusive: 44.7 µM [inhibitor, partial curve, poor fit]

SMILES | Potency
CN(C)c1ccc(CN[C@H]2[C@H](O)[C@@H](N(C)CCc3ccccn3)[C@@H]3OC[C@H]2O3)cc1 | inactive
C#CCNC(=O)c1cc(-c2cccc(C(F)(F)F)c2)c2cccn2n1 | active: 50.1 µM
O=C(c1ccc(-c2ncc3cnc(-c4cccc(F)c4)cn23)cc1)N1CCc2cccnc21 | active: 31.6 µM
Cc1ccc(NC(=O)C2(CCO)CCN(c3ncccn3)C2)cc1 (centres undefined) | inactive
O=C(c1ccc2c(c1)OCO2)N1CCCC(n2cc(-c3nc(C4CC4)no3)nn2)C1 (centres undefined) | inconclusive: 44.7 µM [inhibitor, partial curve, poor fit]
COCCn1c(=O)c2c(n1Cc1ccccc1)CN(C(=O)c1cc3ccccc3n1C)CC2 | active: 28.2 µM
CCC(CC)C(=O)N1CCC2(CC1)CC(N(Cc1ccc(F)cc1)C1CC1)CCO2 (centres undefined) | inconclusive: 50.1 µM [inhibitor, partial curve, poor fit]
Fc1ccc(C2Cn3nnc(-c4nc(-c5ccccc5)no4)c3CO2)cc1 (centres undefined) | inactive
Cc1ccc(NC(=O)N2Cc3[nH]cnc3C[C@H]2c2nc(-c3cccc([N+](=O)[O-])c3)no2)cc1 | inconclusive: 79.4 µM [inhibitor, partial curve, poor fit]
NC(=O)Cc1c[nH]c2ncc(-c3cccc(O)c3)cc12 | inconclusive: 100 µM [inhibitor, partial curve, poor fit]
Cc1nn(-c2ccccc2)c2c1C(C(C)C)N(C1CN(C(=O)c3ccccn3)C1)C2=O (centres undefined) | inconclusive: 31.6 µM [inhibitor, partial curve, poor fit]
COc1ccccc1CC(=O)N1CCc2c(nc[nH]c2=O)C1 | inactive
CCOC(=O)C1CCN(C(=O)C2CCCN(c3cnn(C)c(=O)c3)C2)CC1 (centres undefined) | inactive
COc1ccc(-c2cc(N3CCCC(NC(=O)c4ccc(C)cc4)C3)n[nH]2)cc1 (centres undefined) | inconclusive: 50.1 µM [inhibitor, partial curve, poor fit]
CC(C)NC(=O)N1C2CCC1CN(c1ccc(C(F)(F)F)cc1)C2 | inconclusive: 11.2 µM [inhibitor, full curve, poor fit]
COc1ccc(OCC2CC3(CCCCC3)CN2S(C)(=O)=O)cc1 (centres undefined) | inconclusive: 50.1 µM [inhibitor, partial curve, poor fit]
COc1ccc(-c2noc(CC3CCN(C(=O)CCc4cccc(OC)c4)CC3)n2)cc1 | inconclusive: 35.5 µM [inhibitor, partial curve, poor fit]
O=C(Cc1ccc(N(Cc2cccc(F)c2)C(=O)c2ccco2)cc1)NCc1ccccc1 | inconclusive: 50.1 µM [inhibitor, partial curve, poor fit]
Cc1cccc2c1nc1n2[C@@H](CNS(=O)(=O)c2ccccc2)COC1 | inconclusive: 39.8 µM [inhibitor, partial curve, poor fit]
